From a compilation of properties of binary mixtures (doi:10.1016/j.molliq.2019.111004)
The densities may have been worked out from excess volumes.

Assay: xn = mol fraction of the nth substance listed
Settings: 100 kPa

CCCC[n+]1ccn(C)c1.NCCS(=O)(=O)[O-] + O
mass density [kg/m3]
Settings	288.15 K	293.15 K	298.15 K	303.15 K	308.15 K	313.15 K	318.15 K	323.15 K	328.15 K
x1 = 0.7982	1190.8	–	1184.5	1181.2	1178.1	–	1171.3	1168.5	1165.5
x1 = 0.8281	1192.2	1188.8	1185.8	1182.4	1179.3	1175.8	1172.5	1169.5	–
x1 = 0.8601	1193.5	1190.1	1187.2	1183.8	1180.7	–	1173.9	1170.8	–
x1 = 0.8945	1194.8	1191.6	–	1185.1	1181.9	1178.5	1174.9	1171.8	1168.6
x1 = 0.9354	1196.3	1193.1	–	–	1183.2	1179.8	–	1173	1169.8
x1 = 1	1198.3	1195.2	1192	–	–	–	1178.3	1174.8	1171.4

CCCn1cc[n+](C)c1.NCCS(=O)(=O)[O-] + O
mass density [kg/m3]
Settings	288.15 K	293.15 K	298.15 K	303.15 K	308.15 K	313.15 K	318.15 K	323.15 K	328.15 K
x1 = 0.8013	–	1213.4	1210	1206.5	1203.4	1200.3	1197.1	1194.3	1191.3
x1 = 0.8328	1218.6	1215	1211.5	1208.2	–	1202	1198.8	1195.9	1192.8
x1 = 0.8634	–	1216.7	1213.3	1209.8	1206.7	1203.5	1200.5	1197.6	–
x1 = 0.8962	1221.5	1218.1	1214.8	1211.5	–	–	1202.1	1199.1	1196
x1 = 0.9313	1223.1	1219.8	1216.4	–	1210	1207.1	–	1200.9	1197.6
x1 = 1	1225.5	1222.5	–	1216.1	–	1209.9	1206.8	1203.6	1200.3
